# The list shows a part of the results.
# B1: PX14375l-pdi-526-25-526 (Parabacteroides distasonis) (protein)
# chain: DEEPKSTLTDVAYYKTQSQMESNVNYLYRTGAIGSYVDFGSAYIGPFASIQEELTGYFSNSYEGQEIVCRYTRELTRQQNTMQLASKMDKVWDDCYRGINVANGAIKHMPEVPMDQATADRLTAEAKFFRAFNYFYLVKTFGAVPFYTDPYELAENMELPRTETSTIYNQIESDLKDAMNVLPEATFAANGHRITKYVAAMTLTDVYMYQHKYAEAAETVRIVVNSNHKLTTNDDLAMNSAFNKLRSTDDLDEAIYAYEYDNQISPSNWLPTYAFDGDASSNGLFGTYAITQKVHGPNDRYLNIYESNDLRRQPNQFYHWTYTNPKTGKVWNSVGNAACCWYYYDEDALLTTGRGTKDWNVYRYAEALLDAAESIAQSTGVTAEAAGYLAQVKARANMEGKTAAEIASSLQSMGKQAFIEECWTERLRELPLEFKMWDMCVRTGMFPNISETTPGQVTYIPLVGAKNASGATIKESDLLWPLSVNEIQRNPSLTQNEGYSAK
# Key:
# Assay in all cases: glycan array binding signal (z-score within array); higher = stronger binding
# Conditions in all cases: glycan notation: IUPAC condensed, linker removed
# Fuc(a1-2)Gal = molecular target: Fuc(a1-2)Gal
# Method in brief: (§1)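 The Consortium for Functional Glycomics database supplied 3228 glycan arrays, of which those lacking an available protein sequence were dropped. The binding signal, a within-array Z-score, was averaged across arrays of the same protein sequence and across linkers. Negative scores can be read as non-binding.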
# Fuc(a1-2)Gal(b1-3)GalNAc = molecular target: Fuc(a1-2)Gal(b1-3)GalNAc
# Method in brief: as §1
# [1] = molecular target: Fuc(a1-2)Gal(b1-3)GalNAc(a1-3)[Fuc(a1-2)]Gal(b1-4)Glc
# Method in brief: as §1
# [2] = molecular target: Fuc(a1-2)Gal(b1-3)GalNAc(a1-3)[Fuc(a1-2)]Gal(b1-4)GlcNAc
# Method in brief: as §1
# [3] = molecular target: Fuc(a1-2)Gal(b1-3)GalNAc(b1-3)Gal
# Method in brief: as §1
# [4] = molecular target: Fuc(a1-2)Gal(b1-3)GalNAc(b1-3)Gal(a1-4)Gal(b1-4)Glc
# Method in brief: as §1
# [5] = molecular target: Fuc(a1-2)Gal(b1-3)GalNAc(b1-4)[Neu5Ac(a2-3)]Gal(b1-4)Glc
# Method in brief: as §1
# Fuc(a1-2)Gal(b1-3)GlcNAc = molecular target: Fuc(a1-2)Gal(b1-3)GlcNAc
# Method in brief: as §1
# [6] = molecular target: Fuc(a1-2)Gal(b1-3)GlcNAc(b1-2)Man(a1-3)[Fuc(a1-2)Gal(b1-3)GlcNAc(b1-2)Man(a1-6)]Man(b1-4)GlcNAc(b1-4)GlcNAc
# Method in brief: as §1
# [7] = molecular target: Fuc(a1-2)Gal(b1-3)GlcNAc(b1-2)Man(a1-3)[Fuc(a1-2)Gal(b1-3)GlcNAc(b1-2)Man(a1-6)]Man(b1-4)GlcNAc(b1-4)[Fuc(a1-6)]GlcNAc
# Method in brief: as §1
# [8] = molecular target: Fuc(a1-2)Gal(b1-3)GlcNAc(b1-3)Gal(b1-4)Glc
# Method in brief: as §1
# [9] = molecular target: Fuc(a1-2)Gal(b1-3)GlcNAc(b1-3)GalNAc
# Method in brief: as §1
# [10] = molecular target: Fuc(a1-2)Gal(b1-3)GlcNAc(b1-3)[Fuc(a1-2)Gal(b1-3)GlcNAc(b1-6)]GalNAc
# Method in brief: as §1
# [11] = molecular target: Fuc(a1-2)Gal(b1-3)GlcNAc(b1-3)[Gal(b1-4)GlcNAc(b1-6)]Gal(b1-4)Glc
# Method in brief: as §1
# [12] = molecular target: Fuc(a1-2)Gal(b1-3)GlcNAc(b1-3)[Neu5Ac(a2-6)Gal(b1-4)GlcNAc(b1-6)]Gal(b1-4)Glc
# Method in brief: as §1
# [13] = molecular target: Fuc(a1-2)Gal(b1-3)GlcNAc6S
# Method in brief: as §1
# [14] = molecular target: Fuc(a1-2)Gal(b1-3)[Fuc(a1-4)]GlcNAc
# Method in brief: as §1
# [15] = molecular target: Fuc(a1-2)Gal(b1-3)[Fuc(a1-4)]GlcNAc(b1-2)Man(a1-3)[Fuc(a1-2)Gal(b1-3)[Fuc(a1-4)]GlcNAc(b1-2)Man(a1-3)]Man(b1-4)GlcNAc(b1-4)GlcNAc
# Method in brief: as §1
# [16] = molecular target: Fuc(a1-2)Gal(b1-3)[Fuc(a1-4)]GlcNAc(b1-2)Man(a1-3)[Fuc(a1-2)Gal(b1-3)[Fuc(a1-4)]GlcNAc(b1-2)Man(a1-6)]Man(b1-4)GlcNAc(b1-4)[Fuc(a1-6)]GlcNAc(b1-4)[Fuc(a1-6)]GlcNAc
# Method in brief: as §1
# [17] = molecular target: Fuc(a1-2)Gal(b1-3)[Fuc(a1-4)]GlcNAc(b1-3)[Fuc(a1-3)[Gal(b1-4)]GlcNAc(b1-6)]Gal(b1-4)Glc
# Method in brief: as §1
# [18] = molecular target: Fuc(a1-2)Gal(b1-3)[Fuc(a1-4)]GlcNAc(b1-3)[Gal(b1-4)GlcNAc(b1-6)]Gal(b1-4)Glc
# Method in brief: as §1
# Fuc(a1-2)Gal(b1-4)Glc = molecular target: Fuc(a1-2)Gal(b1-4)Glc
# Method in brief: as §1
# Fuc(a1-2)Gal(b1-4)Glc6S = molecular target: Fuc(a1-2)Gal(b1-4)Glc6S
# Method in brief: as §1
# Fuc(a1-2)Gal(b1-4)GlcNAc = molecular target: Fuc(a1-2)Gal(b1-4)GlcNAc
# Method in brief: as §1
# [19] = molecular target: Fuc(a1-2)Gal(b1-4)GlcNAc(b1-2)Man
# Method in brief: as §1
# [20] = molecular target: Fuc(a1-2)Gal(b1-4)GlcNAc(b1-2)Man(a1-3)[Fuc(a1-2)Gal(b1-4)GlcNAc(b1-2)Man(a1-6)]Man(b1-4)GlcNAc(b1-4)GlcNAc
# Method in brief: as §1
# [21] = molecular target: Fuc(a1-2)Gal(b1-4)GlcNAc(b1-2)Man(a1-3)[Fuc(a1-2)Gal(b1-4)GlcNAc(b1-2)Man(a1-6)]Man(b1-4)GlcNAc(b1-4)[Fuc(a1-6)]GlcNAc
# Method in brief: as §1
# [22] = molecular target: Fuc(a1-2)Gal(b1-4)GlcNAc(b1-2)[Fuc(a1-2)Gal(b1-4)GlcNAc(b1-4)]Man(a1-3)[Fuc(a1-2)Gal(b1-4)GlcNAc(b1-2)Man(a1-6)]Man(b1-4)GlcNAc(b1-4)GlcNAc
# Method in brief: as §1
# [23] = molecular target: Fuc(a1-2)Gal(b1-4)GlcNAc(b1-3)Gal(b1-4)GlcNAc
# Method in brief: as §1
# [24] = molecular target: Fuc(a1-2)Gal(b1-4)GlcNAc(b1-3)Gal(b1-4)GlcNAc(b1-2)Man(a1-3)[Fuc(a1-2)Gal(b1-4)GlcNAc(b1-3)Gal(b1-4)GlcNAc(b1-2)Man(a1-6)]Man(b1-4)GlcNAc(b1-4)GlcNAc
# Method in brief: as §1
# [25] = molecular target: Fuc(a1-2)Gal(b1-4)GlcNAc(b1-3)Gal(b1-4)GlcNAc(b1-3)Gal(b1-4)GlcNAc
# Method in brief: as §1
# [26] = molecular target: Fuc(a1-2)Gal(b1-4)GlcNAc(b1-3)GalNAc
# Method in brief: as §1
# [27] = molecular target: Fuc(a1-2)Gal(b1-4)GlcNAc(b1-3)[Fuc(a1-2)Gal(b1-4)GlcNAc(b1-6)]GalNAc
# Method in brief: as §1
# [28] = molecular target: Fuc(a1-2)Gal(b1-4)GlcNAc(b1-3)[Fuc(a1-3)[Gal(b1-4)]GlcNAc(b1-6)]Gal(b1-4)Glc
# Method in brief: as §1
# [29] = molecular target: Fuc(a1-2)Gal(b1-4)GlcNAc(b1-6)GalNAc
# Method in brief: as §1
# [30] = molecular target: Fuc(a1-2)Gal(b1-4)GlcNAc6S
# Method in brief: as §1
# [31] = molecular target: Fuc(a1-2)Gal(b1-4)[Fuc(a1-3)]GlcNAc
# Method in brief: as §1
# [32] = molecular target: Fuc(a1-2)Gal(b1-4)[Fuc(a1-3)]GlcNAc(b1-2)Man(a1-3)[Fuc(a1-2)Gal(b1-4)[Fuc(a1-3)]GlcNAc(b1-2)Man(a1-6)]Man(b1-4)GlcNAc(b1-4)[Fuc(a1-6)]GlcNAc
# Method in brief: as §1
# [33] = molecular target: Fuc(a1-2)Gal(b1-4)[Fuc(a1-3)]GlcNAc(b1-2)[Fuc(a1-2)Gal(b1-4)[Fuc(a1-3)]GlcNAc(b1-4)]Man(a1-3)[Fuc(a1-2)Gal(b1-4)[Fuc(a1-3)]GlcNAc(b1-2)Man(a1-6)]Man(b1-4)GlcNAc(b1-4)GlcNAc
# Method in brief: as §1
# [34] = molecular target: Fuc(a1-2)Gal(b1-4)[Fuc(a1-3)]GlcNAc(b1-3)Gal(b1-4)[Fuc(a1-3)]GlcNAc
# Method in brief: as §1
# [35] = molecular target: Fuc(a1-2)Gal(b1-4)[Fuc(a1-3)]GlcNAc(b1-3)Gal(b1-4)[Fuc(a1-3)]GlcNAc(b1-3)Gal(b1-4)[Fuc(a1-3)]GlcNAc
# Method in brief: as §1
# [36] = molecular target: Fuc(a1-2)Gal(b1-4)[Fuc(a1-3)]GlcNAc(b1-3)GalNAc
# Method in brief: as §1
# [37] = molecular target: Fuc(a1-2)Gal(b1-4)[Fuc(a1-3)]GlcNAc(b1-3)[Neu5Ac(a2-6)Gal(b1-4)GlcNAc(b1-6)]Gal(b1-4)Glc
# Method in brief: as §1
# [38] = molecular target: Fuc(a1-2)Gal3S(b1-4)GlcNAc
# Method in brief: as §1
# [39] = molecular target: Fuc(a1-2)Gal6S(b1-3)GlcNAc
# Method in brief: as §1
binder,measurement,setting,value
B1,glycan array binding signal (z-score),Fuc(a1-2)Gal,-0.346
same,glycan array binding signal (z-score),Fuc(a1-2)Gal(b1-3)GalNAc,-0.202
same,glycan array binding signal (z-score),[1],-0.083
same,glycan array binding signal (z-score),[2],-0.219
same,glycan array binding signal (z-score),[3],-0.282
same,glycan array binding signal (z-score),[4],-0.199
same,glycan array binding signal (z-score),[5],-0.179
same,glycan array binding signal (z-score),Fuc(a1-2)Gal(b1-3)GlcNAc,-0.314
same,glycan array binding signal (z-score),[6],-0.052
same,glycan array binding signal (z-score),[7],0.156
same,glycan array binding signal (z-score),[8],-0.43
same,glycan array binding signal (z-score),[9],-0.246
same,glycan array binding signal (z-score),[10],0.39
same,glycan array binding signal (z-score),[11],0.058
same,glycan array binding signal (z-score),[12],-0.069
same,glycan array binding signal (z-score),[13],-0.185
same,glycan array binding signal (z-score),[14],-0.349
same,glycan array binding signal (z-score),[15],-0.14
same,glycan array binding signal (z-score),[16],0.236
same,glycan array binding signal (z-score),[17],0.176
same,glycan array binding signal (z-score),[18],-0.446
same,glycan array binding signal (z-score),Fuc(a1-2)Gal(b1-4)Glc,-0.179
same,glycan array binding signal (z-score),Fuc(a1-2)Gal(b1-4)Glc6S,-0.176
same,glycan array binding signal (z-score),Fuc(a1-2)Gal(b1-4)GlcNAc,-0.202
same,glycan array binding signal (z-score),[19],-0.198
same,glycan array binding signal (z-score),[20],3.23
same,glycan array binding signal (z-score),[21],0.097
same,glycan array binding signal (z-score),[22],0.132
same,glycan array binding signal (z-score),[23],-0.078
same,glycan array binding signal (z-score),[24],-0.157
same,glycan array binding signal (z-score),[25],-0.26
same,glycan array binding signal (z-score),[26],-0.2
same,glycan array binding signal (z-score),[27],-0.357
same,glycan array binding signal (z-score),[28],-0.057
same,glycan array binding signal (z-score),[29],-0.108
same,glycan array binding signal (z-score),[30],-0.195
same,glycan array binding signal (z-score),[31],-0.062
same,glycan array binding signal (z-score),[32],1.79
same,glycan array binding signal (z-score),[33],-0.201
same,glycan array binding signal (z-score),[34],0.041
same,glycan array binding signal (z-score),[35],-0.366
same,glycan array binding signal (z-score),[36],3.32
same,glycan array binding signal (z-score),[37],-0.335
same,glycan array binding signal (z-score),[38],-0.205
same,glycan array binding signal (z-score),[39],0.623

# From the supplement of paper PMC8728848
